# Hit rate of the full screen: of about 270,000 compounds, about 5,800 (2.1%) were called active. Inconclusive means that the source gave no clear call. Such entries were picked first, then a sample of the others. Calls follow the shape of the dose curve; as a rule, active = well fitted inhibition curve with a large enough effect; inconclusive = small, poorly fitted or top-dose-only effect; inactive = flat fitted curve, though single readings scatter. Where the call is inconclusive, the potency comes from a doubtful curve fit.
# Target: Microtubule-associated protein tau (Homo sapiens) (UniProt P10636)
# UniProt P10636, sequence (P10636 whole entry, looked up): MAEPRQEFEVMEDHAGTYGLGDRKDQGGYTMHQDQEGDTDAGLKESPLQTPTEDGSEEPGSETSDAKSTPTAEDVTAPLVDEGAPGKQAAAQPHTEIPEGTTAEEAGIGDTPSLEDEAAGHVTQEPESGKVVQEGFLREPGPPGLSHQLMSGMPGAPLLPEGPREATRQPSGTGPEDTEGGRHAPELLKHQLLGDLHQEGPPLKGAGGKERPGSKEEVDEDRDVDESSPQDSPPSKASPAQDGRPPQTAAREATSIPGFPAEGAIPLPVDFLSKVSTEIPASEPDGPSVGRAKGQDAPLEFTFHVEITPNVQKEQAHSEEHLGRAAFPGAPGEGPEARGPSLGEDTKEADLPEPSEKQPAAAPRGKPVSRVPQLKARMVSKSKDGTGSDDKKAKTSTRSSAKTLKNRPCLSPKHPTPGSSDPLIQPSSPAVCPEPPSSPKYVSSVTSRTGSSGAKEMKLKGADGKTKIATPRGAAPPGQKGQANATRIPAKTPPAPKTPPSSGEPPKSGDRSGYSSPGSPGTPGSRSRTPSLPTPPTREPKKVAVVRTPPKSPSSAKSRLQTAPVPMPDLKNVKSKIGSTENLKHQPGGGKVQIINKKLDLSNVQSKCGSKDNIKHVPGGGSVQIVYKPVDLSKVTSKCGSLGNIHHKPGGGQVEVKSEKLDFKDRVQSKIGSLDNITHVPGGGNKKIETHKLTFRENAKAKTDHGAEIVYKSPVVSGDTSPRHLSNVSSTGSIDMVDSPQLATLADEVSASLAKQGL
# Experiment: qHTS for Inhibitors of Tau Fibril Formation, Thioflavin T Binding; also: nearly all actives have a fitted effect of over 55% in size
# Conditions: recombinant tau K18 P301L (four-repeat tau fragment), heparin-induced fibrillization, ThT fluorescence; series mostly up to 57.4 µM; activity, negative = inhibition: at the top concentration
# In short: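 Aggregation was driven by heparin (20 uM final) acting on recombinant tau […] bearing P301L in 100 mM sodium acetate pH 7; fibrils were detected with Thioflavin T.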
# % is scaled to controls: 0 for no effect and ±100 for the full control effect; potency is read from the fitted curve at half-maximal effect; tags tell the direction and shape of the fitted curve.
Compound,Potency,"activity, negative = inhibition"
COc1cccc(OCCSc2nnc3sc4ccccc4n23)c1,"inconclusive: 10 µM [inhibitor, partial curve]",
CC(=C/c1ccco1)/C=N/NC(=O)c1nnn(-c2nonc2N)c1CN(C)C,"inconclusive: 25.1 µM [inhibitor, single point]",
Cc1cccc(NC(c2cccc(F)c2)c2ccc3ccc(C)nc3c2O)n1 (configuration not stated),"inconclusive: 10 µM [inhibitor, partial curve]",
CN(C)c1ccc(/C=c2\sc3nc(-c4ccccc4)nn3c2=O)cc1,,inactive: -1.59%
O=C(NCc1ccco1)c1cccc(Nc2nc3ccc(Br)cc3[nH]2)c1,active: 28.2 µM,
O=C(CSc1nnc(-c2ccccc2)c(-c2ccccc2)n1)N1CCc2ccccc21,,inactive: -15.6%
CCCN(CCC)CC(O)CN(c1cc([N+](=O)[O-])ccc1OC)S(=O)(=O)c1ccccc1 (configuration not stated),,inactive: -3.26%
COC(=O)CSc1nc2sc3c(c2c(=O)[nH]1)CCC3,,inactive: -13.2%
OCC(CO)(CO)N=Cc1c(O)ccc2ccccc12,active: 25.1 µM,
COc1cc(Nc2nc(SCc3ccccc3F)nc3ccccc23)cc(OC)c1,"inconclusive: 39.8 µM [activator, single point]",
COC(=O)C(C)N(c1ccc(OC)cc1)S(C)(=O)=O (configuration not stated),"inconclusive: 0.708 µM [inhibitor, partial curve, poor fit]",
O=C(N/N=C/C1CC=CCC1)c1cc2ccccc2cc1O (configuration not stated),"inconclusive: 8.91 µM [inhibitor, partial curve]",
CCOc1ccc(C(=O)NCCc2sc(-c3ccc(C)cc3)nc2C)cc1,"inconclusive: 1.26 µM [inhibitor, full curve]",
O=C(Nc1nc2c(s1)CCc1ccccc1-2)c1ccco1,"inconclusive: 14.1 µM [inhibitor, partial curve]",
COc1c(Cl)cc(Br)c(OC)c1C(=O)NC(=O)Nc1nc(C)cc(C)n1,,inactive: -8.01%
CCOC(=O)c1c(C)[nH]c(C(=O)COc2ccc3c(c2)OCO3)c1C,"inconclusive: 5.01 µM [inhibitor, partial curve]",
Cc1ccc(-n2ncc3c(NNC(=O)Cc4ccccc4)ncnc32)cc1,"inconclusive: 39.8 µM [inhibitor, single point]",
c1ccc(-n2cnc3cc(NCc4cccs4)ccc32)cc1,"inconclusive: 15.8 µM [inhibitor, partial curve]",
CCOc1ccc(N2C(=O)c3cccnc3C2Nc2ccc(C)cc2)cc1 (configuration not stated),,inactive: -18.8%
CCS(=O)(=O)N1CCN(C2CCC(C)CC2)CC1 (configuration not stated),,inactive: 7.81%
CC(=O)N1CC[n+]2c(-c3ccc([N+](=O)[O-])cc3)csc21,"inconclusive: 35.5 µM [inhibitor, single point]",
Cc1cccc(NC(=O)c2ccc3ccccc3n2)c1C,"inconclusive: 3.55 µM [inhibitor, full curve]",
CCCN(CCC)C1=CC(=[N+]2CCCC2)CC(C)(C)C1,,inactive: 4.99%
CSc1ncc(Cl)c(C(=O)NCc2ccc(C)cc2)n1,,inactive: -3.49%

Compound,Potency,"activity, negative = inhibition"
CCCC(=O)N1CCN(c2ccc([N+](=O)[O-])c(NC(C)c3ccccc3)c2)CC1 (configuration not stated),active: 14.1 µM,
Oc1cccc(C2c3[nH]c4ccccc4c3CCN2Cc2ccoc2)c1 (configuration not stated),"inconclusive: 28.2 µM [inhibitor, single point]",
O=C(Nc1cccc(C(F)(F)F)c1)C1CCCN(S(=O)(=O)c2cccc3nsnc23)C1 (configuration not stated),,inactive: -6.31%
CCOc1ccc(C(=O)NC2CCN(C(=O)NCc3ccccc3)CC2)cc1,"inconclusive: 20 µM [inhibitor, single point]",
CCCc1nc2ccccc2c(=O)n1N,,inactive: 2.53%
CC(C)NC(=O)C(=O)N/N=C/c1ccco1,,inactive: -18.5%
COc1ccccc1N1CCN(CCCNC(=O)c2cnn(-c3ccccc3Cl)c2C2CCN(C(=O)OC(C)(C)C)CC2)CC1,"inconclusive: 31.6 µM [inhibitor, single point]",
CC(/C=N/Nc1nnc2c(n1)[nH]c1ccccc12)=C\c1ccco1,active: 6.31 µM,
CC(C)(C)NC(=O)CON=C1c2ccccc2-c2ccccc21,"inconclusive: 20 µM [inhibitor, partial curve]",
CC(=O)Nc1ccc(S(=O)(=O)C(C#N)c2nc3ccccc3nc2NCCO)cc1 (configuration not stated),"inconclusive: 15.8 µM [inhibitor, partial curve]",
Cc1ccc(-n2nc3cc(C)c(N)cc3n2)cc1,"inconclusive: 10 µM [inhibitor, partial curve]",
O=c1[nH]cnc2sc3c(c12)CCN(Cc1ccccc1)C3,"inconclusive: 39.8 µM [inhibitor, single point]",
Cc1ccc(C(c2nnnn2C2CCCC2)N2CCc3ccccc32)cc1 (configuration not stated),"inconclusive: 17.8 µM [inhibitor, partial curve]",
C/C(CC(=O)Nc1ccc(OCc2ccccc2)cc1)=N\NC(=O)C(=O)Nc1ccc(C)c(Cl)c1,"inconclusive: 0.891 µM [inhibitor, full curve]",
Cc1ccc(SCC(=O)Nc2ccc(-c3nnc(-c4ccco4)o3)cc2)cc1,"inconclusive: 6.31 µM [inhibitor, partial curve, poor fit]",
COCC(C)OC(=O)/C(C#N)=C\c1coc2ccc(C)cc2c1=O (configuration not stated),"inconclusive: 25.1 µM [inhibitor, single point]",
O=S(=O)(c1ccc(F)cc1)N1CCN(c2ccccc2)CC1,,inactive: -14.3%
O=C(CSc1nc(-c2ccc(Cl)cc2)cs1)Nc1cccc([N+](=O)[O-])c1,"inconclusive: 3.16 µM [inhibitor, single point]",
O=S1(=O)C=CC(Nc2cccc(Cl)c2)C1 (configuration not stated),,inactive: 1.37%
O=c1[nH]c(N2CCCCC2)nc2ncn(Cc3ccccc3)c12,,inactive: -3.24%
COc1ccccc1C1OC(=O)CC1C(=O)OC[C@@H]1CCCN2CCCCC12 (some centres not stated),,inactive: -9.79%
O=C(N1CCN(c2cccc(Cl)c2)CC1)C1(S(=O)(=O)c2ccc(Cl)cc2)CC1,"inconclusive: 0.112 µM [inhibitor, full curve, poor fit]",
CCOC(=O)C1(CC)Oc2ccccc2C(c2ccc(OC)cc2)=C1C(=O)OC (configuration not stated),"inconclusive: 15.8 µM [inhibitor, partial curve, poor fit]",

# Source: PubChem BioAssay AID1460 (National Center for Advancing Translational Sciences (NCATS), 2008)
